The list shows a part of the results. Many values rest on one well or one pass, so single values are uncertain.
system: SkMel28; assay: cell count relative to DMSO control; melanoma cells; higher = more viable cells; conditions: library dose: low library concentration; 72 h
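Further: cell number obtained by counting DAPI-stained nuclei in high-throughput microscope images with image analysis software, screen run in 1,536-well plates.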

| SMILES | cell count [%] |
| --- | --- |
| CC(C)C[C@H](NC(=O)[C@H](Cc1ccccc1)NC(=O)c1cnccn1)B(O)O [Bortezomib] + COc1cc(Nc2ncc(F)c(Nc3ccc4c(n3)NC(=O)C(C)(C)O4)n2)cc(OC)c1OC [Tamatinib] (first compound 0.001 µM, partner dose 0.4 µM) | 95.4 |
| Cc1cc(Nc2cc(N3CCN(C)CC3)nc(/C=C/c3ccccc3)n2)n[nH]1 + Cc1cc(N2CCOCC2)cc2[nH]c(-c3c(NC[C@@H](O)c4cccc(Cl)c4)cc[nH]c3=O)nc12 [BMS536924] (first compound 0.04 µM, partner dose 0.2 µM) | 86.9 |
| Cc1cn(-c2cc(NC(=O)c3ccc(C)c(Nc4nccc(-c5cccnc5)n4)c3)cc(C(F)(F)F)c2)cn1 [nilotinib] + COc1cc2ncnc(Nc3ccc(Oc4ccccc4)cc3)c2cc1OC [SrcI1] (first compound 0.2 µM, partner dose 2 µM) | 105 |
| COc1ccc(C2=N[C@@H](c3ccc(Cl)cc3)[C@@H](c3ccc(Cl)cc3)N2C(=O)N2CCNC(=O)C2)c(OC(C)C)c1 [Nutlin-3] + CN(NC(=O)CC(=O)NN(C)C(=S)c1ccccc1)C(=S)c1ccccc1 [STA4783] (first compound 0.1 µM, partner dose 0.006 µM) | 76.2 |
| Cc1cc(Nc2cc(N3CCN(C)CC3)nc(/C=C/c3ccccc3)n2)n[nH]1 + COc1ccc(-c2ccc3c(N4CCOCC4)nc(N4C[C@@H](C)O[C@@H](C)C4)nc3n2)cc1CO [KU0063794] (first compound 0.04 µM, partner dose 0.02 µM) | 79 |
| Cn1c(=O)n(-c2ccc(C(C)(C)C#N)cc2)c2c3cc(-c4cnc5ccccc5c4)ccc3ncc21 + C[C@@H]1CCN(C(=O)CC#N)C[C@@H]1N(C)c1ncnc2[nH]ccc12 [CP690550] (first compound 0.004 µM, partner dose 1 µM) | 92.8 |
| Cc1cn(-c2cc(NC(=O)c3ccc(C)c(Nc4nccc(-c5cccnc5)n4)c3)cc(C(F)(F)F)c2)cn1 [nilotinib] + C[C@@H]1CCN(C(=O)CC#N)C[C@@H]1N(C)c1ncnc2[nH]ccc12 [CP690550] (first compound 0.2 µM, partner dose 1 µM) | 97.7 |
| Cn1c(=O)n(-c2ccc(C(C)(C)C#N)cc2)c2c3cc(-c4cnc5ccccc5c4)ccc3ncc21 + NC(=O)Nc1cc(-c2cccc(F)c2)sc1C(=O)N[C@H]1CCCNC1 [AZD7762] (first compound 0.004 µM, partner dose 0.02 µM) | 89.7 |

system: SkMel2; assay: as above; conditions: library dose: low library concentration; 72 h

| SMILES | cell count [%] |
| --- | --- |
| CC(C)C[C@H](NC(=O)[C@H](Cc1ccccc1)NC(=O)c1cnccn1)B(O)O [Bortezomib] + O=c1cc(-c2cccc3c2Sc2ccccc2S3)oc(N2CCOCC2)c1 [KU55933] (first compound 0.001 µM, partner dose 1 µM) | 101 |
| COc1ccc(C2=N[C@@H](c3ccc(Cl)cc3)[C@@H](c3ccc(Cl)cc3)N2C(=O)N2CCNC(=O)C2)c(OC(C)C)c1 [Nutlin-3] + CN(C)S(=O)(=O)c1ccc2c(c1)/C(=C/c1cc3c([nH]1)CCCC3)C(=O)N2 [SU6656] (first compound 0.1 µM, partner dose 0.4 µM) | 113 |
| Cc1cc(Nc2cc(N3CCN(C)CC3)nc(/C=C/c3ccccc3)n2)n[nH]1 + CCc1ccc(CCOc2ccc(CC3SC(=O)NC3=O)cc2)nc1 [pioglitazone] (first compound 0.04 µM, partner dose 2 µM) | 101 |
| Cn1c(=O)n(-c2ccc(C(C)(C)C#N)cc2)c2c3cc(-c4cnc5ccccc5c4)ccc3ncc21 + O=C(Nc1ccccc1)c1cc([N+](=O)[O-])ccc1Cl [GW9662] (first compound 0.004 µM, partner dose 2 µM) | 87.1 |
| Cc1cn(-c2cc(NC(=O)c3ccc(C)c(Nc4nccc(-c5cccnc5)n4)c3)cc(C(F)(F)F)c2)cn1 [nilotinib] + COc1cc2c(Oc3ccc4[nH]c(C)cc4c3F)ncnc2cc1OCCCN1CCCC1 [cediranib] (first compound 0.2 µM, partner dose 0.4 µM) | 96.6 |
| Cc1cc(Nc2cc(N3CCN(C)CC3)nc(/C=C/c3ccccc3)n2)n[nH]1 + OCCn1cc(-c2cnc3nnn(Cc4ccc5ncccc5c4)c3n2)cn1 [PF04217903] (first compound 0.04 µM, partner dose 1 µM) | 96.3 |
| CC(C)C[C@H](NC(=O)[C@H](Cc1ccccc1)NC(=O)c1cnccn1)B(O)O [Bortezomib] + NCC(=O)Nc1ccc(-n2nc(C(F)(F)F)cc2-c2ccc3c(ccc4ccccc43)c2)cc1 [OSU03012] (first compound 0.001 µM, partner dose 1 µM) | 59.5 |
| Cn1c(=O)n(-c2ccc(C(C)(C)C#N)cc2)c2c3cc(-c4cnc5ccccc5c4)ccc3ncc21 + COc1cc(Nc2ncc(F)c(Nc3ccc4c(n3)NC(=O)C(C)(C)O4)n2)cc(OC)c1OC [Tamatinib] (first compound 0.004 µM, partner dose 0.4 µM) | 90.7 |
| COc1ccc(C2=N[C@@H](c3ccc(Cl)cc3)[C@@H](c3ccc(Cl)cc3)N2C(=O)N2CCNC(=O)C2)c(OC(C)C)c1 [Nutlin-3] + CCN(CC)CCCCNc1ncc2cc(-c3cc(OC)cc(OC)c3)c(NC(=O)NC(C)(C)C)nc2n1 [PD173074] (first compound 0.1 µM, partner dose 0.1 µM) | 97.4 |
| CC(C)C[C@H](NC(=O)[C@H](Cc1ccccc1)NC(=O)c1cnccn1)B(O)O [Bortezomib] + CN(C)S(=O)(=O)c1ccc2c(c1)/C(=C/c1cc3c([nH]1)CCCC3)C(=O)N2 [SU6656] (first compound 0.001 µM, partner dose 0.4 µM) | 111 |
| Cc1cn(-c2cc(NC(=O)c3ccc(C)c(Nc4nccc(-c5cccnc5)n4)c3)cc(C(F)(F)F)c2)cn1 [nilotinib] + COc1ccc(COc2ccc(Cc3cnc(N)nc3N)cc2OC)cc1 [GW2580] (first compound 0.2 µM, partner dose 1 µM) | 92.3 |
| CC(C)C[C@H](NC(=O)[C@H](Cc1ccccc1)NC(=O)c1cnccn1)B(O)O [Bortezomib] + Oc1cc(-c2nc(-c3ccccc3)[nH]c2-c2ccncc2)ccc1Cl [L779450] (first compound 0.001 µM, partner dose 0.2 µM) | 90.8 |
| CC(C)C[C@H](NC(=O)[C@H](Cc1ccccc1)NC(=O)c1cnccn1)B(O)O [Bortezomib] + Cc1cc(N2CCOCC2)cc2[nH]c(-c3c(NC[C@@H](O)c4cccc(Cl)c4)cc[nH]c3=O)nc12 [BMS536924] (first compound 0.001 µM, partner dose 0.2 µM) | 91.9 |
| Cn1c(=O)n(-c2ccc(C(C)(C)C#N)cc2)c2c3cc(-c4cnc5ccccc5c4)ccc3ncc21 + COc1cc2c(Oc3ccc4[nH]c(C)cc4c3F)ncnc2cc1OCCCN1CCCC1 [cediranib] (first compound 0.004 µM, partner dose 0.4 µM) | 84.5 |
| Cc1cn(-c2cc(NC(=O)c3ccc(C)c(Nc4nccc(-c5cccnc5)n4)c3)cc(C(F)(F)F)c2)cn1 [nilotinib] + O=C1NC(=O)/C(=C/c2ccc(-c3ccc(F)cc3O)o2)S1 [AS252424] (first compound 0.2 µM, partner dose 1 µM) | 85.9 |
| CC(C)C[C@H](NC(=O)[C@H](Cc1ccccc1)NC(=O)c1cnccn1)B(O)O [Bortezomib] + Cn1cc(/C=C2\C(=O)Nc3cccnc32)c2ccccc21 [GW441756] (first compound 0.001 µM, partner dose 0.4 µM) | 103 |
| Cc1cc(Nc2cc(N3CCN(C)CC3)nc(/C=C/c3ccccc3)n2)n[nH]1 + COc1ccc(COc2ccc(Cc3cnc(N)nc3N)cc2OC)cc1 [GW2580] (first compound 0.04 µM, partner dose 1 µM) | 101 |
| Cc1cn(-c2cc(NC(=O)c3ccc(C)c(Nc4nccc(-c5cccnc5)n4)c3)cc(C(F)(F)F)c2)cn1 [nilotinib] + COc1cc(N2CCC(N3CCN(C)CC3)CC2)ccc1Nc1ncc(Cl)c(Nc2ccccc2S(=O)(=O)C(C)C)n1 [NVP-TAE684] (first compound 0.2 µM, partner dose 0.08 µM) | 77.8 |
| CC(C)C[C@H](NC(=O)[C@H](Cc1ccccc1)NC(=O)c1cnccn1)B(O)O [Bortezomib] + O=C1NC(=O)/C(=C/c2ccc(-c3ccc(F)cc3O)o2)S1 [AS252424] (first compound 0.001 µM, partner dose 1 µM) | 96.9 |
| Cc1cc(Nc2cc(N3CCN(C)CC3)nc(/C=C/c3ccccc3)n2)n[nH]1 + CCCCCCCCCCCC1=C(O)C(=O)C=C(O)C1=O [Embelin] (first compound 0.04 µM, partner dose 1.2 µM) | 105 |
| Cn1c(=O)n(-c2ccc(C(C)(C)C#N)cc2)c2c3cc(-c4cnc5ccccc5c4)ccc3ncc21 + Cc1cc(N2CCOCC2)cc2[nH]c(-c3c(NC[C@@H](O)c4cccc(Cl)c4)cc[nH]c3=O)nc12 [BMS536924] (first compound 0.004 µM, partner dose 0.2 µM) | 89.8 |
| Cc1cc(Nc2cc(N3CCN(C)CC3)nc(/C=C/c3ccccc3)n2)n[nH]1 + C=CCn1c(=O)c2cnc(Nc3ccc(N4CCN(C)CC4)cc3)nc2n1-c1cccc(C(C)(C)O)n1 [MK1775] (first compound 0.04 µM, partner dose 0.02 µM) | 86 |
